Experimental data: the supplement of paper PMC11417369
± gives the standard deviation of the averaged measurements. The list shows a part of the results.

System: PfAP2-G AP2 domain (GST-tagged)
Experiment: gcPBM binding intensity (ln(normalized median fluorescence intensity)); higher = stronger DNA binding
Summary of the method: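 GST-tagged P. falciparum DNA-binding domains produced in E. coli were incubated for 1 h on an Agilent 4 × 180k array of primer-extended double-stranded 36-bp intergenic genomic probes with negative controls. Binding intensity is the highest Masliner-normalised natural-log median intensity across replicate spots of either probe orientation, with bound protein detected by Alexa488 anti-GST antibody at 488 nm.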

Row | Sequence | gcPBM binding intensity (ln)
1 | ATATATTTAAAATTGACACACATTTAATGACATTTT [CACACA_site3112] | 10
2 | TTTTTGTATTCTTCTTCTTCCAGACTACATTATGTC [XGTACX_negctrl_site235] | 9.915 ± 0.092
3 | AATTAAACTTTGTTTTTGTTTTTTTTTTTTATATTT [CACACA_negctrl_site1316] | 9.49 ± 0.057
4 | ATATATATAAATATATGTACATAAATATATTTGTAA [XGTACX_site6715] | 11.2 ± 0.76
5 | AAATAAAAATTAAAAAAATAGAAACGAATTGAATGC [TGCATGCA_negctrl_site365] | 9.87 ± 0.099
6 | CGCGTATAACGAAATTGTACAAAAAAAATTAAACAT [XGTACX_site6813] | 11 ± 0.5
7 | TCTTTAACAAGTTAAACACACATACCTATATACATA [CACACA_site7237] | 9.86 ± 0.085
8 | TGGTGATATACGAAATGTACGCAAATCACAAAATAA [XGTACX_site8836] | 11.5 ± 0.98
9 | ATATATATATATAAAGGTACACATTTATTAAATATA [XGTACX_site7102] | 11.3 ± 0.97
10 | AATTTTGAGATGTGGTGTACACAAAATTAGTTAGAC [XGTACX_site7033] | 11.7 ± 0.98
11 | TCAACGATCACTCGGTGTACTATAAATGAGAGAATT [XGTACX_site1820] | 11.3 ± 0.95
12 | ATTAAATTAAAATAATGTACTTAATACTTTTGCTTA [XGTACX_site8404] | 11.1 ± 0.69
13 | AACAATTTTTAAAGGTGTACAATATGTATATAAGAA [XGTACX_site254] | 11.6 ± 0.93
14 | AACAAATTAATTCTAGTGCAGGACGTATTTGTGTAC [GTGCAC_site9907] | 11.1 ± 0.51
15 | AAAAAAAAAAAAAAATGTACATATATAATATTTATA [XGTACX_site5117] | 11.1 ± 0.71
16 | TACAAAATGTTATATCAATATAGATAAAAAAATGAA [XGTACX_negctrl_site285] | 9.65 ± 0.23
17 | TAATATATATAACATATACACACGTTCATATATATA [CACACA_site462] | 9.82 ± 0.042
18 | TATTTGCAATATTATACACACATTAGATATTGCAAA [CACACA_site7565] | 9.95 ± 0.11
19 | ATAAAAATATATGAAACACACAGTTTCTATAAGAAA [CACACA_site4156] | 9.76
20 | ATATGTATATAATAAGAACACACATATATTTAATTT [CACACA_site8961] | 10.2 ± 0.16
21 | GTTATTAAATAATTCACACACATATATAAATAAATA [CACACA_site7129] | 9.85 ± 0.057
22 | TTGTGCTAAACAAAAAAAAATATATATAAAAAAATA [XGTACX_negctrl_site388] | 9.88 ± 0.33
23 | TACAATATAATTTAATGTACATGTGAATATATATAT [XGTACX_site4675] | 11.2 ± 0.71
24 | TAATATACTATAAATACACACAAGTGTACATACTTC [CACACA_site983] | 11.3 ± 0.87
25 | TTAAAAAGAGGTGACACACACATATAAATCTAAATC [CACACA_site3738] | 10.08 ± 0.057
26 | TATTAAAAGGTGAGTACACACATATCTGAGTATATA [CACACA_site5192] | 11.5 ± 0.91
27 | CTTCATAAAAATTGCACACATATAATAATGTACATA [CACACA_site2212] | 11.2 ± 0.64
28 | AAAAAAAATACATACACACACACACGCACATATATA [CACACA_site7645] | 10.3 ± 0.18

Row | Sequence | gcPBM binding intensity (ln)
29 | ATTTTTTTATAATCAACCCATTTCCTACATTTTTAT [CACACA_negctrl_site1237] | 10.045 ± 0.007
30 | CATCCACATAGATGTACACACATATATATATATATA [CACACA_site5616] | 11.4 ± 0.75
31 | ATATGTATATTTTTGATGTGCTTTTATTTGGTTATT [CACACA_negctrl_site626] | 10.01 ± 0.035
32 | AATAAATATAAATAAATAAATATATATATATATTTG [CACACA_negctrl_site1486] | 9.305 ± 0.035
33 | ATATCTCAACATATCACACATATATATATATAATAT [CACACA_site5018] | 9.98 ± 0.13
34 | GTATATATGTTTTATACACACATTAAAGGAAATATA [CACACA_site984] | 10.3 ± 0.28
35 | CACAAACAGACAAACACACACACACGGACATACATA [CACACA_site6350] | 11 ± 0.48
36 | TATAATATATAAAAATGTACACATAAATATAAGTAG [XGTACX_site665] | 11.5 ± 0.8
37 | ACATGCAAGAAGAAATGTACTTAACATCTATATAGA [XGTACX_site7338] | 10.9 ± 0.64
38 | ACTAAATAAATAAATATAATATATAAATATGTATGT [TGCATGCA_negctrl_site583] | 9.73 ± 0.13
39 | AAAATTAATTTATTTACACACAATATTAAAATATTT [CACACA_site7512] | 9.88 ± 0.071
40 | TTTTATACATATTTTACACACTAAAATATACAGATA [CACACA_site4333] | 10.1 ± 0.099
41 | TTACATATTCATAAAAGTACATAATTATAAAAGGTA [XGTACX_site906] | 11.2 ± 0.76
42 | AATCAAAAAGGAACCATAATATTACAACTATATATA [CACACA_negctrl_site381] | 10.1 ± 0.11
43 | TAAAACTTAATGTTTTGTACATATTCTTCTTTATTT [XGTACX_site4271] | 10.7 ± 0.34
44 | AAACAATTATTATATTGTACATATATTACATTATTA [XGTACX_site1089] | 10.9 ± 0.76
45 | TTATATTTTATTATGTGTACGTATATAATATAATAT [XGTACX_site6230] | 11.6 ± 0.97
46 | GCCATAAAGATATATACACACATAAAAAAAAGTTAT [CACACA_site6674] | 10.1 ± 0.16
47 | AAAAAAAAAATTAAATGTACATATATAATATATATA [XGTACX_site7245] | 10.9 ± 0.63
48 | ATTATTATAGATAAAACACACAATTTTGTTTTCACA [CACACA_site7792] | 9.82 ± 0.057
49 | TTAACAAAGAAACACACACACACACCCAAAAAAAAA [CACACA_site516] | 10.4 ± 0.33
50 | TTTTTATTCGTTAAATGTACAAAAAAAATGTTATAT [XGTACX_site2804] | 10.8 ± 0.48
51 | ATACACTAGAAAATTTTATAGTATTATTAATGTTAA [GTGCAC_negctrl_site101] | 9.89 ± 0.057
52 | ATAAAGTAAGAAGAAATAATGATTTTCATGGAAAAC [XGTACX_negctrl_site322] | 9.76 ± 0.17
53 | AATAAGATAAGGAAAAGTACTTATAATTAAACTAAT [XGTACX_site1850] | 11.1 ± 0.57
54 | CTCATAGTTGGGTGCACACAAAAAATTAAAAAAATA [CACACA_site3032] | 10.8 ± 0.8
55 | AAATATAAGTAAATAAATAAATATATAAATATATAA [TGCATGCA_negctrl_site441] | 9.53 ± 0.16
